Assay results as given in PubChem BioAssay (Tox21).
Values joined by “and” are separate entries in the source; they are usually repeats but may differ in a detail not shown here. Equal entries are not always repeated. The inconclusive results got no clear call from the source; some entries with a clear call stand among them for comparison. Where the call is inconclusive, the potency comes from a doubtful curve fit. More than one record can exist for a structure, and the calls need not agree. Active and inactive are the calls of the source. Calls come from the whole dose curve; as a rule, active = well fitted cell-killing curve with a large enough effect in the repeat runs; inconclusive = weak or mixed curves, or effect the other way; inactive = no such curve, though single readings can be large or run the other way.
% is set by controls: 0 for no effect and ±100 for the full control effect; potency is the fitted concentration of half-maximal effect; tags give direction and shape of the fitted curve.

Test: qHTS assay to identify small molecule antagonists of the retinoid-related orphan receptor gamma (ROR-gamma) signaling pathway - cell viability counter screen (AID 1159520); note: nearly all actives have a fitted effect of over 50% in size
Settings: Tet-on RORgamma CHO cells viability, ATP luminescence, 16 h; series mostly up to 92.4 µM
Text: U.S. Tox21 Program National Center for Advancing Translational Sciences [NCATS] NIH Chemical Genomics Center [NCGC] U.S. Environmental Protection Agency [EPA] National Institutes of Environmental Health Sciences [NIEHS] National Toxicology Program [NTP] U.S. Food and Drug Administration [FDA] Tox21 Assay Overview: Nuclear steroid hormone receptors are involved in many biological processes including inflammatory responses, cell proliferation, and apoptosis. Environmental factors or compounds disrupting these nuclear receptor pathways and gene expression may promote susceptibility to immunotoxicants and autoimmune diseases. One important group of these expression factors are the retinoid-related orphan receptors. To assess compounds that may interfere with the retinoid-related orphan receptor gamma (ROR-gamma) transcription factor, a cell-based luciferase assay was used. The CHO cell-based assay utilizes a TET-inducible ROR expression factor and ROR response element-LUC reporter gene. Reporter gene activity was induced using Doxycycline Hyclate and measured after 16 hr incubation. Tet-on ROR gamma CHO cells were used to screen against the Tox21 10K compound library for cytotoxicity by measuring the viability of the cells based on the quantitation of the ATP.
Tox21 Assay Protocol Summary: Tet-on ROR gamma CHO cells were dispensed at 1,000 cells in 4 uL of culture medium per well into white wall/solid bottom 1536-well plates using a Multidrop Combi (Thermo Scientific, Waltham, MA) dispenser. Following incubation at 37 C and 5% CO2 for 4 hr, 23 nL of compounds dissolved in DMSO, positive controls or DMSO only were transferred by a Pintool station (Kalypsys, San Diego, CA) and after 2 hr incubation at 37 C, one ul of 1 uM (final concentration) of Doxycycline Hyclate was added to all the wells by using a Flying Reagent Dispenser (FRD) (Aurora Discovery, San Diego, CA). After 16 hr incubation at 37 C and 5% CO2, 5 uL of CellTiter-Glo reagent (Promega Corporation, Madison, WI) was added to each assay plate using FRD. After 30 min incubation at room temperature, luminescence was quantified on a ViewLux plate reader (Perkin Elmer, Waltham, MA).
For C#C[C@]1(O)CC[C@H]2[C@@H]3CCC4=Cc5oncc5C[C@]4(C)[C@H]3CC[C@@]21C, the Potency was inconclusive: 48.6 µM [cytotoxic, partial curve]. In the case of COC(CC(C)CCCC(C)(C)O)OC (stereo not given), the Potency is reported as inconclusive: 0.0039 µM [rising, full curve, poor fit]. With CCCCN(CCCC)c1ccc(C(=O)c2ccccc2C(=O)O)c(O)c1 the Potency was inconclusive: 61.7 µM [cytotoxic, single point]. With C1CCC(C(CC2CCCCN2)C2CCCCC2)CC1 (stereo not given) the Potency was active: 26.6 µM. In the case of C[C@@H]1CN(CCCn2c3ccccc3c3ccccc32)C[C@H](C)N1, the Potency is reported as inconclusive: 33.5 µM [cytotoxic, partial curve, poor fit]. For O=[N+]([O-])c1cc(N(CCO)CCO)ccc1NCCO, the Potency was inconclusive: 48.5 µM [cytotoxic] and inconclusive: 24.3 µM [cytotoxic, partial curve]. In the case of CN1CCCC(CC2c3ccccc3Sc3ccccc32)C1 (stereo not given), the Potency is reported as inconclusive: 26.6 µM [cytotoxic, partial curve, poor fit]. With c1ccc2cc3c4ccccc4c4ccccc4c3cc2c1 the Potency was inconclusive: 48.8 µM [cytotoxic, partial curve]. For COc1ccc2cc(S(=O)(=O)N[C@H](CC(=O)N[C@H](Cc3ccc(CN4[C@H](C)CCC[C@@H]4C)cc3)C(=O)N(C)C(C)C)c3ccc4c(c3)OCO4)ccc2c1, the Potency was inconclusive: 57.9 µM [cytotoxic, partial curve]. In the case of O=C(NOCC1CC1)c1ccc(F)c(F)c1Nc1ccc(I)cc1Cl, the Potency is reported as inconclusive: 21.1 µM [cytotoxic, partial curve]. In the case of Cc1[nH]nc2c1N=C(c1ccccc1Cl)c1cc([N+](=O)[O-])ccc1N2, the Potency is reported as active: 54.5 µM. For Brc1cc2ccccc2c2ccccc12, the Potency was inconclusive: 69.1 µM [cytotoxic, partial curve, poor fit]. With CN1CCc2cccc3c2[C@H]1Cc1ccc(O)c(O)c1-3 the Potency was active: 69.3 µM and inconclusive: 22.8 µM [cytotoxic] and inconclusive: 33.5 µM [cytotoxic, partial curve, poor fit]. For COc1ccccc1NC(=O)c1cc2ccccc2cc1O, the Potency was inconclusive: 24.3 µM [cytotoxic, partial curve, poor fit]. With O=C(O)c1cc(=O)[nH]c(=O)[nH]1 the Potency was “inactive”. In the case of CC(=O)N/N=C/c1ccc([N+](=O)[O-])o1, the Potency is reported as inconclusive: 33.5 µM [cytotoxic, single point]. In the case of C/C=C(/C(=C/C)c1ccc(O)cc1)c1ccc(O)cc1, the Potency is reported as inconclusive: 26.6 µM [cytotoxic, partial curve]. With O=C1CC2(CCCC2)CC(=O)N1CCCCN1CCN(c2ncccn2)CC1 the Potency was inconclusive: 27.3 µM [cytotoxic, partial curve, poor fit]. For CCCCC/C=C\C=C\C(=O)OCC, the Potency was inconclusive: 20.1 µM [cytotoxic, full curve]. With C/C=C/C=C/COC(=O)C(C)C the Potency was inconclusive: 43.3 µM [cytotoxic, partial curve]. For S=C1NC=NC2N=CNC12 (stereo not given), the Potency was inconclusive: 34.4 µM [cytotoxic, partial curve, poor fit]. For COc1ccc2sc(C(=O)Nc3nnn[nH]3)c(OC(C)C)c2c1, the Potency was inconclusive: 30.5 µM [cytotoxic, partial curve, poor fit]. In the case of NC(N)=NN=C(/C=C/c1ccc([N+](=O)[O-])o1)/C=C/c1ccc([N+](=O)[O-])o1, the Potency is reported as active: 2.11 µM. In the case of Nc1cc(S(=O)(=O)O)cc2cc(S(=O)(=O)O)cc(O)c12, the Potency is reported as inconclusive: 19.3 µM [cytotoxic, partial curve, poor fit]. For CC1COC(=O)O1 (stereo not given), the Potency was “inactive”. In the case of O=C(CCN1CCC(c2ccccc2)C1)c1ccc2c(c1)OCCO2 (stereo not given), the Potency is reported as active: 26.6 µM. In the case of C1CN(SSN2CCOCC2)CCO1, the Potency is reported as inconclusive: 42.8 µM [cytotoxic, partial curve, poor fit] and inconclusive: 43.3 µM [cytotoxic, partial curve]. In the case of CCC(C)c1cc([N+](=O)[O-])cc([N+](=O)[O-])c1OC(=O)OC(C)C (stereo not given), the Potency is reported as active: 61.1 µM. For O=[Se](O)O, the Potency was active: 54.5 µM and the activity, negative = cytotoxicity was inactive: -10.3% [at 19 µM]. In the case of CC(=O)[C@]1(O)Cc2c(O)c3c(c(O)c2[C@@H](O[C@H]2C[C@H](N)[C@H](O)[C@H](C)O2)C1)C(=O)c1ccccc1C3=O, the Potency is reported as active: 26.6 µM. In the case of CC[C@H](C)COC(=O)/C=C/c1ccc(N=Cc2ccc(OC)cc2)cc1, the Potency is reported as inconclusive: 34.3 µM [cytotoxic, partial curve, poor fit]. For OCCOCC#CCOCCO, the Potency was inconclusive: 61.1 µM [cytotoxic, single point]. In the case of CCCCCCOC(C)=O, the Potency is reported as “inactive”. In the case of O=C(Nc1ccc2c(O)c(N=Nc3ccc(N=Nc4ccc(S(=O)(=O)O)cc4)cc3)c(S(=O)(=O)O)cc2c1)c1ccccc1, the Potency is reported as inconclusive: 15.4 µM [cytotoxic, full curve]. In the case of CCCCCCc1ccc(O)cc1O, the Potency is reported as active: 61.3 µM and inconclusive: 61.1 µM [cytotoxic]. For CC(C)(C)C(=O)C1C(=O)c2ccccc2C1=O, the Potency was inconclusive: 30.3 µM [cytotoxic, partial curve] and inconclusive: 38.6 µM [cytotoxic, partial curve, poor fit]. In the case of Oc1ccc(Cl)c2cccnc12, the Potency is reported as inconclusive: 1.68 µM [cytotoxic, full curve]. For O=c1[nH]sc2cc(Cl)ccc12, the Potency was active: 26.6 µM. With NC(=NCCCCCCN=C(N)/N=C(\N)Nc1ccc(Cl)cc1)/N=C(\N)Nc1ccc(Cl)cc1 the Potency was inconclusive: 39.3 µM [cytotoxic, partial curve, poor fit] and inconclusive: 60.8 µM [cytotoxic, partial curve].
